“And” between values parts separate entries of the source, which are not always exact repeats. Equal values may be shown once. About 230 (0.21%) of roughly 110,000 compounds showed an effect of 50% or more. The list shows a part of the results.
Target: DPAP1 (Plasmodium falciparum, UniProt Q8IIJ9)
Test: primary screen, percent inhibition; read by cleavage of a fluorogenic dipeptide substrate; higher = more effect of the substance
Design: species or system P. falciparum D10 trophozoite lysates; single well
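Further: 30 min substrate incubation versus DMSO and 10 µM JCP410 controls.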

Sequence of DPAP1 (Q8IIJ9 whole entry, looked up): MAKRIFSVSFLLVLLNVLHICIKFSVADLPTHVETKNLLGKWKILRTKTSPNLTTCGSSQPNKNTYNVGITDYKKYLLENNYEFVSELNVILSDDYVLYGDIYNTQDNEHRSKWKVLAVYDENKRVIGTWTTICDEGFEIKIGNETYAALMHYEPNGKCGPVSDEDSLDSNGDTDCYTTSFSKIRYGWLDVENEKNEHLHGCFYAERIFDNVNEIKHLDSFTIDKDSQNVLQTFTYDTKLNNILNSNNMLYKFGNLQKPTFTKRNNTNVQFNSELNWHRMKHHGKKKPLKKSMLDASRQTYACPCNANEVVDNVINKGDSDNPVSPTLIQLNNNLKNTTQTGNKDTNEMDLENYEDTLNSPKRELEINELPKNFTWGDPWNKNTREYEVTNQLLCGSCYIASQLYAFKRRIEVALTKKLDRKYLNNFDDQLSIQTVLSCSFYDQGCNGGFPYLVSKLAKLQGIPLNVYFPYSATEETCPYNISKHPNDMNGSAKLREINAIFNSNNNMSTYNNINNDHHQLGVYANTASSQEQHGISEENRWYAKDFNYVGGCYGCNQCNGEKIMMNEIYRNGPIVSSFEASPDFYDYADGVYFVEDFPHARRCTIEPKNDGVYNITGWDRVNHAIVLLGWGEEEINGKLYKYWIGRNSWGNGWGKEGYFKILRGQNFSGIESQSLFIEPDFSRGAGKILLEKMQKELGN

For `C=CCOc1ccc(C(=O)C2=C(O)C(=O)N(CCN(CC)CC)C2c2ccc(Cl)cc2)cc1C` (stereo not shown), which “% Inhibition @ 10 uM” value is on record?
The value was 3.15%.

`O=S(=O)(c1ccccc1)N1C2C=CC(C2)C1(C(F)(F)F)C(F)(F)F` (stereo not shown) was tested. Which “% Inhibition @ 10 uM” value did it give?
The value was -1.72%.

For `Cc1onc(-c2ccccc2Cl)c1C(=O)NC(C)Cc1ccccc1` (stereo not shown), which “% Inhibition @ 10 uM” value is on record?
The value was -4.93%.

With `COc1ccc(N/C=C\C(=O)c2ccc3c(c2)OCO3)cc1` as the molecule, how does the “% Inhibition @ 10 uM” value read?
The value was 0.777%.

For `COc1ccc2c(c1OC)C(=O)N(c1cccc(/C=C/C(=O)O)c1)C2`, which “% Inhibition @ 10 uM” value is on record?
The value was 7.79%.

With `CC(=O)C(C(C)=O)=C1SCC(c2ccccc2)S1` (stereo not shown) as the molecule, how does the “% Inhibition @ 10 uM” value read?
The value was -10.7%.

With `Cn1c(=O)c2c(nc(SCC(=O)O)n2Cc2cccc(Cl)c2)n(C)c1=O` as the molecule, how does the “% Inhibition @ 10 uM” value read?
Its value is -0.725%.

With `Cn1c(NC(=O)c2ccc(C(C)(C)C)cc2)cc(=O)n(C)c1=O` as the molecule, how does the “% Inhibition @ 10 uM” value read?
Its value is 5.26%.

With `CC(CCc1ccccc1)NCc1c(C(=O)O)[nH]c2ccccc12` (stereo not shown) as the molecule, how does the “% Inhibition @ 10 uM” value read?
Its value is 5.09%.

For `CC1CCN(C(=O)CCc2nc(CN3CCN(C(=O)c4cc(-c5cccs5)on4)CC3)no2)CC1`, which “% Inhibition @ 10 uM” value is on record?
Its value is 2.96%.

With `COCCN1C(=O)C(O)=C(C(C)=O)C1c1ccc(Cl)cc1Cl` (stereo not shown) as the molecule, how does the “% Inhibition @ 10 uM” value read?
Its value is -3.21%.

For `CN1CCC(N2CCCCC2CO)CC1` (stereo not shown), which “% Inhibition @ 10 uM” value is on record?
Its value is -3.27%.

`CCSc1nnc2n(-c3ccccc3)c3ccccc3n12` was tested. Which “% Inhibition @ 10 uM” value did it give?
Its value is -2.29%.

With `N#Cc1ccc(Oc2ccccc2N2C(=O)c3ccccc3C2=O)cc1` as the molecule, how does the “% Inhibition @ 10 uM” value read?
The value was -3.24%.

Which “% Inhibition @ 10 uM” value does the source give for `NC(=O)C1CCCN(Cc2ccc(Br)cc2)C1` (stereo not shown) here?
The value was -2.95%.

With `CN1CCN(C(=O)C2=CC(c3ccco3)=NS(=O)(=O)N2C)CC1` as the molecule, how does the “% Inhibition @ 10 uM” value read?
The value was 0.655%.

With `Cc1nn(CC(=O)NCCN2CCOCC2)c2ccccc12` as the molecule, how does the “% Inhibition @ 10 uM” value read?
Its value is -1.11%.

For `Cc1nn(-c2ccccc2)c(C)c1-c1ccccc1O`, which “% Inhibition @ 10 uM” value is on record?
The value was 2.79%.

With `O=C(Cc1ccc(-c2ccccc2)cc1)N1CCN(c2ccccn2)CC1` as the molecule, how does the “% Inhibition @ 10 uM” value read?
Its value is -0.95%.

With `CC1CCC2(C)c3c(c4ccccc4n3C)CCN2C1` (stereo not shown) as the molecule, how does the “% Inhibition @ 10 uM” value read?
The value was 2.05%.

How did the “% Inhibition @ 10 uM” value turn out when `CN1CCC(N(C)Cc2ccc(F)cc2)CC1` was run?
Its value is -5.57%.

How did the “% Inhibition @ 10 uM” value turn out when `COc1ccccc1CNC1CCCCC1C` (stereo not shown) was run?
The value was 1.13%.

Which “% Inhibition @ 10 uM” value does the source give for `COc1cc(-c2cc(C(F)(F)F)n3ncc(C(=O)N4CCCCCC4)c3n2)cc(OC)c1OC` here?
Its value is 5.39% and -0.884%.

`O=C(Nc1ccccc1)c1cccc(S(=O)(=O)N2CCN(c3ccccc3)CC2)c1` was tested. Which “% Inhibition @ 10 uM” value did it give?
Its value is -0.865%.

Which “% Inhibition @ 10 uM” value does the source give for `COC(=O)c1ccc(C(=O)OCc2nc3cc4ccccc4cc3[nH]2)cc1` here?
Its value is 11.8%.

`Cc1ccc(OC(C)C(=O)Nc2ccccc2Br)cc1` (stereo not shown) was tested. Which “% Inhibition @ 10 uM” value did it give?
The value was -6.57%.

Which “% Inhibition @ 10 uM” value does the source give for `COCc1nc2ccccc2n1CCCOc1ccccc1` here?
Its value is 2.73%.

Which “% Inhibition @ 10 uM” value does the source give for `Cc1c(C(=O)NCc2ccc3c(c2)OCO3)oc2ccc(S(=O)(=O)N3CCCCCC3)cc12` here?
Its value is 4.79%.

From publication PMC6919601, “Identification of Plasmodium dipeptidyl aminopeptidase allosteric inhibitors by high throughput screening” (PLoS ONE, 2019)
